Measured values reported in the supplement of paper PMC5919970.
Where a name gives a salt, the structure may show the parent alone. Over roughly 2,000 compounds, “fractional viability relative to vehicle” has its median near 0.92; the lowest 2% begin near 0.11. Some of the results follow.

System: TYKNU
Experiment: fractional viability relative to vehicle; TYKNU is a high-grade serous ovarian cancer line; higher = less growth inhibition
Settings: 72 h, genotype: OPA1 knockout (sgOPA1 #2)
Summary of the method: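 TYKNU control cells or lentiCRISPRv2 knockout derivatives were plated at 500 cells per well in duplicate into drug-stamped 384-well plates holding a ~2100-compound library at 2 or 10 μM. Culture was in RPMI 1640 with 10% FBS at 37 °C in 5% CO2, with 72 h of drug treatment. Viability was measured by Cell Titer Glo luminescence, and the averaged duplicate treatment wells were normalised to duplicate control wells at the same plate position.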

Compound	fractional viability (2uM)	fractional viability (10uM)
CCc1cnn2c(NCc3ccc[n+]([O-])c3)cc(N3CCCC[C@H]3CCO)nc12	0.572	0.51
O=C1NC(=O)[C@@H](c2cn3c4c(cccc24)CCC3)[C@@H]1c1c[nH]c2ccccc12 [Tivantinib (ARQ 197)]	0.5	0.495
C[C@H]1Oc2cc(cnc2N)-c2c(nn(C)c2C#N)CN(C)C(=O)c2ccc(F)cc21	0.778	0.632
C[C@@]1(c2cc(-c3cncnc3)c(F)cc2F)CCSC(N)=N1	1.12	0.948
O=C(O)C(S)=Cc1c[nH]c2ccc(F)cc12	0.79	0.825
O=C(/C=C/C=C/c1ccc2c(c1)OCO2)N1CCCCC1 [Piperine]	1.1	1.13
O=c1c2ccccc2nc2n1CCc1c-2[nH]c2ccccc12 [Rutaecarpine]	1.44	1.13
CCC(=O)OCC(=O)[C@@]1(OC(=O)CC)[C@@H](C)C[C@H]2[C@@H]3CCC4=CC(=O)C=C[C@]4(C)[C@@]3(Cl)[C@@H](O)C[C@@]21C [Beclomethasone dipropionate]	1.06	0.897
Cc1cc(C)nc(SCC(=O)Nc2ncc(Cc3cccc4ccccc34)s2)n1	0.904	0.931
COc1ccccc1N1CCN(CCCNc2cc(=O)n(C)c(=O)n2C)CC1 [Urapidil HCl]	1.07	1.16
O=C(Nc1cccc(Nc2ncc(Br)c(NCCc3cnc[nH]3)n2)c1)N1CCCC1	1.05	0.982
COc1nc(N)nc2c1ncn2[C@@H]1O[C@H](CO)[C@@H](O)[C@@H]1O [Nelarabine]	1.11	1.03
CN(C)CCCn1cc(C2=C(c3c[nH]c4ccccc34)C(=O)NC2=O)c2ccccc21	0.898	0.766
CC(=O)Oc1cc2c(s1)CCN(C(C(=O)C1CC1)c1ccccc1F)C2 (stereo unspecified) [Prasugrel]	1.03	0.983
Cn1cnc([N+](=O)[O-])c1Sc1ncnc2[nH]cnc12 [Azathioprine]	1.18	1.48
CC(C)C(=O)Nc1ccc([N+](=O)[O-])c(C(F)(F)F)c1 [Flutamide]	0.974	0.977
CC1(C)CCC2=C(O1)c1ccccc1C(=O)C2=O [Beta-Lapachone]	0.202	0.0483
CC(=O)OCC[N+](C)(C)C [Acetylcholine Chloride]	0.913	0.867
OCCN1C[C@H](O)[C@@H](O)[C@H](O)[C@H]1CO [Miglitol]	1.32	0.92
S=C(NCc1ccc2c(c1)OCO2)N1CCN(c2ncnc3c2oc2ccccc23)CC1 [Amuvatinib (MP-470)]	1.06	1.09
C[C@H](CCC(=O)O)[C@H]1CC[C@H]2[C@@H]3CC[C@@H]4C[C@H](O)CC[C@]4(C)[C@H]3CC[C@]12C [Lithocholic acid]	1.11	0.905
CC(=O)SCC(Cc1ccccc1)C(=O)NCC(=O)OCc1ccccc1 (stereo unspecified) [Racecadotril]	1.12	0.988
COC(=O)C1=C(C)NC(C)=C(C(=O)OC(C)C)C1c1cccc2nonc12 (stereo unspecified) [Isradipine]	1.17	0.858
Cn1c(Nc2ccc(C(F)(F)F)cc2)nc2cc(Oc3ccnc(-c4ncc(C(F)(F)F)[nH]4)c3)ccc21	0.581	0.447
CCOc1cc(C(C)(C)C)ccc1C1=N[C@@](C)(c2ccc(Cl)cc2)[C@@](C)(c2ccc(Cl)cc2)N1C(=O)N1CCN(CCCS(C)(=O)=O)CC1	0.49	0.469

Compound	fractional viability (2uM)	fractional viability (10uM)
O=C(O)CCCC[C@@H]1SC[C@@H]2NC(=O)N[C@@H]21 [Biotin (Vitamin B7)]	1.03	1.04
CCOC(=O)Nc1ccc(NCc2ccc(F)cc2)nc1N [Flupirtine maleate]	1.34	1.13
O=C(/C=C/N1C[C@H]2C[C@@H]1CN2c1ccccn1)c1ccccc1O	0.994	0.926
O=c1[nH]cnc2c1ncn2[C@H]1CC[C@@H](CO)O1 [Didanosine]	1.08	0.935
CN(C/C=C/C#CC(C)(C)C)Cc1cccc2ccccc12 [Terbinafine]	1.12	1.03
CN(C/C=C/C#CC(C)(C)C)Cc1cccc2ccccc12 [Terbinafine HCl]	0.92	0.811
Fc1ccc([C@@H]2CCNC[C@H]2COc2ccc3c(c2)OCO3)cc1 [Paroxetine HCl]	0.883	0.439
Nc1nc(O)c2ncn(CCC(CO)CO)c2n1 [Penciclovir]	1.22	0.916
C[C@H]1COc2c(N3CCN(C)CC3)c(F)cc3c(=O)c(C(=O)O)cn1c23 [Levofloxacin]	1.11	1.06
NC(CO)C(=O)NNCc1ccc(O)c(O)c1O (stereo unspecified) [Benserazide HCl]	1.12	0.97
Nc1nc(Nc2ccc3c(c2)CCC(N2CCCC2)CC3)nn1-c1cc2c(nn1)-c1ccccc1CCC2 (stereo unspecified)	0.566	0.0864
CCCC(=O)OCOC(=O)C1=C(C)NC(C)=C(C(=O)OC)C1c1cccc(Cl)c1Cl (stereo unspecified) [Clevidipine Butyrate]	1.03	1.08
CCOC(=O)[C@H](CCc1ccccc1)N[C@@H](C)C(=O)N1Cc2cc(OC)c(OC)cc2C[C@H]1C(=O)O [Moexipril HCl]	1.04	1.02
O=c1[nH]cnc2[nH]ncc12 [Allopurinol Sodium]	1.13	1.02
CN1CCN(C2CCN(C(=O)Nc3cc(Oc4ccc(NC(=O)C5(C(=O)Nc6ccc(F)cc6)CC5)c(F)c4)ccn3)CC2)CC1 [Golvatinib (E7050)]	0.92	0.485
C[N+](C)(C)CCO.[Cl-] [Choline Chloride]	0.937	0.834
Clc1ccc(Nc2nnc(Cc3ccncc3)c3ccccc23)cc1 [Vatalanib (PTK787) 2HCl]	1.16	0.881
Cn1cc(-c2ccc3nnc(Sc4ccc5ncccc5c4)n3n2)cn1	1.11	0.982
Cc1cc(O)c2c(c1)C(=O)c1cc(O)cc(O)c1C2=O [Emodin]	0.898	0.917
O=C1NC(=O)/C(=C/c2cccc(C(F)(F)F)c2)S1	0.918	0.615
CC(C)CN(C[C@@H](O)[C@H](Cc1ccccc1)NC(=O)O[C@H]1CO[C@H]2OCC[C@H]21)S(=O)(=O)c1ccc(N)cc1 [Darunavir Ethanolate]	1.26	0.962
Cc1cc2c(F)c(Oc3ncnn4cc(OC[C@@H](C)O)c(C)c34)ccc2[nH]1	1.03	0.73
O=C(O)CSCC(=O)NC1CCSC1=O (stereo unspecified) [Erdosteine]	0.933	0.942
COc1cc(/C=C/C(=O)CC(=O)/C=C/c2ccc(O)c(OC)c2)ccc1O [Curcumin]	0.989	0.813
Cc1c[nH]c(/C=C2\C(=O)Nc3ccccc32)c1CCC(=O)O	0.793	0.846

Compound	fractional viability (2uM)	fractional viability (10uM)
Cc1ccccc1N=Nc1ccc(NC(=O)c2ccnn2C)c(C)c1	0.902	0.923
Cn1cc(-c2ccc(S(=O)(=O)n3ccc(/C=C/C(=O)Nc4ccccc4N)c3)cc2)cn1	0.351	0.193
CCc1oc2ccccc2c1C(=O)c1cc(Br)c(O)c(Br)c1 [Benzbromarone]	0.978	0.938
CC/C(=C(\c1ccccc1)c1ccc(OCCN(C)C)cc1)c1ccccc1 [Tamoxifen Citrate]	1.4	0.815
C=C(c1ccc(C(=O)O)cc1)c1cc2c(cc1C)C(C)(C)CCC2(C)C [Bexarotene]	1.1	0.876
CN(C)CCCCC(=O)Nc1ccc(NC(=S)NC(=O)c2ccc(C(C)(C)C)cc2)cc1 [Tenovin-6]	0.783	0.155
CC[N+](CC)(CC)CCOc1cccc(OCC[N+](CC)(CC)CC)c1OCC[N+](CC)(CC)CC [Gallamine Triethiodide]	1.08	0.833
CN1CCC[C@@H]1CCO[C@](C)(c1ccccc1)c1ccc(Cl)cc1 [Clemastine Fumarate]	1.04	0.931
CCOc1ccc(NC(C)=O)cc1 [Phenacetin]	0.999	0.827
O=C(c1ccc(OCCCc2c[nH]cn2)cc1)C1CC1 [Ciproxifan]	1.1	0.986
CC(C)[C@H](N)C(=O)OCC(CO)OCn1cnc2c(=O)[nH]c(N)nc21 (stereo partly specified) [Valganciclovir HCl]	0.846	0.832
CC(C(=O)O)c1ccc(C(=O)c2cccs2)cc1 (stereo unspecified) [Suprofen]	1.11	0.868
CN1CCN(c2nc(C3=C(c4c[nH]c5ccccc45)C(=O)NC3=O)c3ccccc3n2)CC1 [Sotrastaurin]	1.05	0.803
COc1cc2ncnc(Nc3ccc(F)c(Cl)c3)c2cc1OCCCN1CCOCC1 [Gefitinib (ZD1839)]	1.15	0.804
CCCCC[C@H](O)/C=C/[C@H]1[C@H](O)CC(=O)[C@@H]1CCCCCCC(=O)O [Alprostadil]	1.1	0.989
NC1=N[C@@](c2cccc(-c3cncnc3)c2)(c2ccnc(C(F)F)c2)c2cccc(F)c21	0.845	0.771
O=C(O)c1ccccc1 [Benzoic Acid]	0.885	0.957
CC[C@@H]([C@H](C)O)n1ncn(-c2ccc(N3CCN(c4ccc(OC[C@@H]5CO[C@@](Cn6cncn6)(c6ccc(F)cc6F)C5)cc4)CC3)cc2)c1=O [Posaconazole]	1.18	0.872
COc1ccc(CN2CCN(C(c3ccc(F)cc3)c3ccc(F)cc3)CC2)c(OC)c1OC [Lomerizine HCl]	0.896	0.906
CC(C)Cc1ccc(C(C)C(=O)O)cc1 (stereo unspecified) [Ibuprofen]	1.02	0.942
CCN1CCN(Cc2ccc(Nc3ncc(F)c(-c4cc(F)c5nc(C)n(C(C)C)c5c4)n3)nc2)CC1	0.602	0.0904
COCCc1ccc(OCC(O)CNC(C)C)cc1 (stereo unspecified) [Metoprolol Tartrate]	1.16	1.04
O=C(O)c1cc(I)ccc1NC(=O)[C@H](Cc1ccccc1)NCc1ccccc1	0.885	0.822
